Among all 48,000 compounds or so, about 550 (1.1%) were called active. Inconclusive results (about 4%) are left out. Cut-off read from the data, not from the text of the source: active = potency below about 15 µM; inconclusive = mostly about 16 µM to 33 µM; inactive = weaker than that. This is one part of the list.

Our source for the Potency values is PubChem BioAssay AID360 (National Center for Advancing Translational Sciences (NCATS), 2006).
Potency is the fitted concentration of half-maximal effect.

Sequence of UniProt P04062 (P04062 whole entry, looked up): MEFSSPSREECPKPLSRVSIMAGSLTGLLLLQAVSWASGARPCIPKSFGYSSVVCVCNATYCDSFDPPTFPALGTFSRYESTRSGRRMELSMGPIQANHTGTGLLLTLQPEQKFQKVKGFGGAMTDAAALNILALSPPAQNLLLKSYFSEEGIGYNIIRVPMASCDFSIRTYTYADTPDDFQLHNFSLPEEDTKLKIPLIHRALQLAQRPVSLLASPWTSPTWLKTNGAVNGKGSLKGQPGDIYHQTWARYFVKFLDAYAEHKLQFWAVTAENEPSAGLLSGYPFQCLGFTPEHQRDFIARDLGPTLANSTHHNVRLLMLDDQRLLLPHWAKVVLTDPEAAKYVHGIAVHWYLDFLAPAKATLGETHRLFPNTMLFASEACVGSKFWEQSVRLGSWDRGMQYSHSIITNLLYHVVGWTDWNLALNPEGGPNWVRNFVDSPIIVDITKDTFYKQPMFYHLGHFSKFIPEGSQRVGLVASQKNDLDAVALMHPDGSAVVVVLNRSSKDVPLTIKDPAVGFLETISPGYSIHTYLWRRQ

The target in this assay is Lysosomal acid glucosylceramidase (Homo sapiens) (UniProt P04062). Description: Glucocerebrosidase.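 Note: the screen sought inhibitors.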 The note with it: purified enzyme, resorufin glucoside fluorescence (screen aimed at inhibitors), 20 min. A digest of the protocol:
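Compounds titrated against 0.2 nM normal enzyme, 30 uM resorufin beta-D-glucopyranoside substrate, citrate/phosphate buffer with taurocholate and tween-20, pH 5.9. Reaction ran 20 min at room temperature; fluorescence (Ex 548/Em 600) gave AC50.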
For the compound `CN(C)CCNC(=O)c1ccccc1-c1ccccc1`, the Potency is inactive: > 76.9 µM.

Regarding `CCc1[nH]nc2c1C1(C(=O)N(Cc3ccccc3)c3ccccc31)C(C#N)=C(N)O2` (centres undefined), the Potency was inactive: > 76.9 µM. To `COc1ccc(C2C(C(=O)c3sc(C)nc3C)=C(O)C(=O)N2CCN(C)C)cc1OC` (centres undefined) belongs inactive: > 76.9 µM. To `CN(C)c1nc(Oc2ccc(=O)n(C)n2)nc(N2CCOCC2)n1` belongs inactive: > 76.9 µM; to `COc1ccc(-c2nc(C#N)c(NCC3CCCO3)o2)cc1` (centres undefined), inactive: > 76.9 µM.

Turning to `CCn1cc(C(=O)O)c(=O)c2cc(F)c(N3CCN(C(=O)Nc4ccccc4)CC3)cc21`, the Potency is inactive: > 76.9 µM. To `Cc1cc(C)n(-c2ncnc3sc4c(c23)CCCC4)n1` belongs inactive: > 76.9 µM; to `CC(C)Cn1c(N)c(C(=O)COC(=O)c2ccncc2)c(=O)n(C)c1=O`, inactive: > 76.9 µM.

Turning to `COC(=O)c1ccc(CSc2nnnn2C)o1`, the Potency was inactive: > 76.9 µM.

As to `CCOC(=O)C1CCN(C(=O)Nc2ccc(NC(=O)C3CCN(C(=O)OCC)CC3)cc2)CC1`, the Potency is inactive: > 76.9 µM. Then `COC(=O)CSC1=C(C#N)C(c2ccccc2)CC(=O)N1` (centres undefined), with inactive: > 76.9 µM. To `COc1ccc2[nH]c(=O)c(CN(C(=O)c3ccncc3)C(C)C)cc2c1` belongs inactive: > 76.9 µM; to `CCN=c1sc(C(=O)NCCc2ccccc2)cc(=O)n1CC`, inactive: > 76.9 µM.

Turning to `COCC(=O)N(Cc1cc2cc(OC)ccc2[nH]c1=O)c1ccccc1OC`, the Potency was inactive: > 76.9 µM.

With `CCOC(=O)CSc1nc2cc(C(=O)NCc3ccco3)ccc2c(=O)n1-c1ccc(F)cc1`, the Potency was inactive: > 76.9 µM. To `C=CCNC(=O)c1c(N)n(-c2cccc(S(N)(=O)=O)c2)c2nc3ccccc3nc12` belongs inactive: > 76.9 µM; to `O=C(COc1ccc(Cl)cc1Cl)Nc1noc2ccccc12`, inactive: > 76.9 µM.

Turning to `COc1cccc(N(CC(=O)Nc2ccccc2C)S(C)(=O)=O)c1`, the Potency was inactive: > 76.9 µM. To `Cc1c(C(=O)N2CCN(c3ccccn3)CC2)sc2ncnc(N3CCN(c4ccccc4)CC3)c12` belongs inactive: > 76.9 µM; to `COc1ccccc1C(=O)NCCn1ccc2ccccc21`, inactive: > 76.9 µM. Then `Cc1cc2c(=O)n(Cc3ccco3)c(SCC(=O)c3ccc(Cl)s3)nc2s1`, with inactive: > 76.9 µM; and `Nn1c(SCC(=O)Nc2ccc(F)cc2F)nnc1C1CCCCC1`, with inactive: > 76.9 µM. Take `CC1Cc2ccccc2N1C(=O)C1CCN(S(=O)(=O)c2cccs2)CC1` (centres undefined): the Potency was inactive: > 76.9 µM. Then `COc1ccc(C(=O)n2nc(-c3ccco3)nc2SC)cc1OC`, with inactive: > 76.9 µM.
